Data on one compound can be found in paper PMC12223841, “Compounds Isolated from Paepalanthus spp. (Eriocaulaceae) and Their Evaluation in Antimicrobial, Cytotoxic, and Antiviral Assays” (ACS Omega, 2025).

Usually IC50 stands for the concentration at which inhibition is half-maximal. A higher IC50 goes with weaker potency in that assay.

In the assay the target is ZIKV NS2B-NS3pro (Zika virus, UniProt A0A024B7W1). Description: biochemical.

`COc1c(O)cc2oc(-c3ccc(O)cc3)c(OC3OC(COC(=O)C=Cc4ccc(O)cc4)C(O)C(O)C3O)c(=O)c2c1O` [Compound 4, 6-Methoxykaempferol-3-O-β-D-6″-(p-coumaroyl)-glycopyranoside] came in with an IC50 of 1950 nM.
